Data from PMC8971425.
These are yes or no findings as the source states them, for the method shown. In cells and extracts the contact can be indirect. Some entries that bind do so weakly or less than the wild type. One block for each binder: values may come before it.

Amino acid sequences for entries named in this document (tags omitted). Residues count along the entry.
UniProt Q9NZQ7, residues 19-290: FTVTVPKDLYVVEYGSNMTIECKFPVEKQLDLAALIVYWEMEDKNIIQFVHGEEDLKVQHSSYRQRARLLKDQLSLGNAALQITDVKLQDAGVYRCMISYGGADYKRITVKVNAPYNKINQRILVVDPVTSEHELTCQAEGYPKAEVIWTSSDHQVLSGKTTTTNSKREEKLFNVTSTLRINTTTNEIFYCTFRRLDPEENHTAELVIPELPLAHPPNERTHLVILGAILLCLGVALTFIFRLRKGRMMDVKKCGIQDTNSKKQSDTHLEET
UniProt Q9EP73, residues 19-290: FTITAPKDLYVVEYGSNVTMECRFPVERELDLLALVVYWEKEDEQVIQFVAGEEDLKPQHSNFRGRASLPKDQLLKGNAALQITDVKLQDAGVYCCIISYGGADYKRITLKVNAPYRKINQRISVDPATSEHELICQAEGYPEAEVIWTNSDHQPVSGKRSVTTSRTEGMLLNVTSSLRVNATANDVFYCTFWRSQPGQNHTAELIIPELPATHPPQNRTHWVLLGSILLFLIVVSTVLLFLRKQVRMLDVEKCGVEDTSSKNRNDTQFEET

Assays:
[1] = biological target: PD-L1, endogenous in PC9 cells (human (endogenous in PC9)) (UniProt Q9NZQ7); assay: co-IP; endogenous proteins; anti-PD-L1 immunoprecipitates from CT26 and PC9 cell lysates; immunoblot
[2] = biological target: PD-L1, endogenous in CT26 cells (mouse (endogenous in CT26)) (UniProt Q9EP73); assay: as above

- binding [1]: binds
B1: USP8, endogenous in PC9 cells (enzyme, UniProt P40818 1-1118)
chain: MPAVASVPKELYLSSSLKDLNKKTEVKPEKISTKSYVHSALKIFKTAEECRLDRDEERAYVLYMKYVTVYNLIKKRPDFKQQQDYFHSILGPGNIKKAVEEAERLSESLKLRYEEAEVRKKLEEKDRQEEAQRLQQKRQETGREDGGTLAKGSLENVLDSKDKTQKSNGEKNEKCETKEKGAITAKELYTMMTDKNISLIIMDARRMQDYQDSCILHSLSVPEEAISPGVTASWIEAHLPDDSKDTWKKRGNVEYVVLLDWFSSAKDLQIGTTLRSLKDALFKWESKTVLRNEPLVLEGGYENWLLCYPQYTTNAKVTPPPRRQNEEVSISLDFTYPSLEESIPSKPAAQTPPASIEVDENIELISGQNERMGPLNISTPVEPVAASKSDVSPIIQPVPSIKNVPQIDRTKKPAVKLPEEHRIKSESTNHEQQSPQSGKVIPDRSTKPVVFSPTLMLTDEEKARIHAETALLMEKNKQEKELRERQQEEQKEKLRKEEQEQKAKKKQEAEENEITEKQQKAKEEMEKKESEQAKKEDKETSAKRGKEITGVKRQSKSEHETSDAKKSVEDRGKRCPTPEIQKKSTGDVPHTSVTGDSGSGKPFKIKGQPESGILRTGTFREDTDDTERNKAQREPLTRARSEEMGRIVPGLPSGWAKFLDPITGTFRYYHSPTNTVHMYPPEMAPSSAPPSTPPTHKAKPQIPAERDREPSKLKRSYSSPDITQAIQEEEKRKPTVTPTVNRENKPTCYPKAEISRLSASQIRNLNPVFGGSGPALTGLRNLGNTCYMNSILQCLCNAPHLADYFNRNCYQDDINRSNLLGHKGEVAEEFGIIMKALWTGQYRYISPKDFKITIGKINDQFAGYSQQDSQELLLFLMDGLHEDLNKADNRKRYKEENNDHLDDFKAAEHAWQKHKQLNESIIVALFQGQFKSTVQCLTCHKKSRTFEAFMYLSLPLASTSKCTLQDCLRLFSKEEKLTDNNRFYCSHCRARRDSLKKIEIWKLPPVLLVHLKRFSYDGRWKQKLQTSVDFPLENLDLSQYVIGPKNNLKKYNLFSVSNHYGGLDGGHYTAYCKNAARQRWFKFDDHEVSDISVSSVKSSAAYILFYTSLGPRVTDVAT

- binding [2]: binds
B2: USP8, endogenous in CT26 cells (enzyme, UniProt Q80U87 1-1080)
chain: MPAVASVPKELYLSSSLKDLNKKTEVKPEKTSTKNYIHSAQKIFKTAEECRLDRDEERAYVLYMKYVAVYNLIKKRPDFKQQQDYYLSILGPANIKKAIEEAERLSESLKLRYEEAEVRKQLEEKDRREEEQLQQQKRQEMGREDSGAAAKRSVENLLDSKTKTQRINGEKSEGAAAAERGAITAKELYTMMMDKNTSLIIMDARKIQDYQHSCILDSLSVPEEAISPGVTASWIEANLSDDSKDTWKKRGSVDYVVLLDWFSSAKDLLLGTTLRSLKDALFKWESKTVLRHEPLVLEGGYENWLLCYPQFTTNAKVTPPPRSRAEEVSVSLDFTYPSLEEPVPSKLPTQMPPPPIETNEKALLVTDQDEKLRLSTQPALAGPGAAPRAEASPIIQPAPATKSVPQVDRTKKPSVKLPEDHRIKSENTDQSGRVLSDRSTKPVFPSPTTMLTDEEKARIHQETALLMEKNKQEKELWDKQQKEQKEKLRREEQERKAGKTQDADERDSTENQHKAKDGQEKKDSKQTKTEDRELSADGAQEATGTQRQSKSEHEASDAKVPVEGKRCPTSEAQKRPADVSPASVSGELNAGKAQREPLTRARSEEMGRIVPGLPLGWAKFLDPITGTFRYYHSPTNTVHMYPPEMAPSSAPPSTPPTHKVKPQVPAERDREPSKLKRSYSSPDITQALQEEEKRRPAVTPMVNRENKPPCYPKAEISRLSASQIRNLNPVFGGSGPALTGLRNLGNTCYMNSILQCLCNAPHLADYFNRNCYQDDINRSNLLGHKGEVAEEFGIIMKALWTGQYRYISPKDFKVTIGKINDQFAGSSQQDSQELLLFLMDGLHEDLNKADNRKRHKEENNEHLDDLQAAEHAWQKHKQLNESIIVALFQGQFKSTVQCLTCRRRSRTFEAFMYLSLPLASTSKCTLQDCLRLFSKEEKLTDNNRFYCSHCRARRDSLKKIEIWKLPPVLLVHLKRFSYDGRWKQKLQTSVDFPLENLDLSQYVIGPKNSLKKYNLFSVSNHYGGLDGGHYTAYCKNAARQRWFKFDDHEVSDISVSSVRSSAAYILFYTSLGPRITDVAT
